This is one part of the list.

Common to all, as to test: glycan array binding signal (z-score within array); higher = stronger binding
Holding throughout (settings): glycan notation: IUPAC condensed, linker removed

For assay [1], the target named is Gal(b1-4)GlcNAc(b1-3)Gal(b1-4)GlcNAc(b1-3)Gal(b1-4)GlcNAc(b1-3)Gal(b1-4)GlcNAc(b1-2)Man(a1-3)[Gal(b1-4)GlcNAc(b1-3)Gal(b1-4)GlcNAc(b1-3)Gal(b1-4)GlcNAc(b1-3)Gal(b1-4)GlcNAc(b1-2)Man(a1-6)]Man(b1-4)GlcNAc(b1-4)GlcNAc. The method in brief:
(§1)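 Glycan array binding is given as a within-array Z-score, which can be read as non-binding when negative. The arrays, 3228 of them, came from the Consortium for Functional Glycomics database and were retained only where the protein sequence was available. Z-scores were averaged across arrays of the same protein sequence at different concentrations or buffers and across linkers.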

The target in assay [2] is Gal(b1-4)GlcNAc(b1-3)Gal(b1-4)GlcNAc(b1-3)Gal(b1-4)GlcNAc(b1-3)Gal(b1-4)GlcNAc(b1-2)Man(a1-3)[Gal(b1-4)GlcNAc(b1-3)Gal(b1-4)GlcNAc(b1-3)Gal(b1-4)GlcNAc(b1-3)Gal(b1-4)GlcNAc(b1-2)Man(a1-6)]Man(b1-4)GlcNAc(b1-4)[Fuc(a1-6)]GlcNAc. A digest of the protocol:
as §1

The target of assay [3] is Gal(b1-4)GlcNAc(b1-3)Gal(b1-4)GlcNAc(b1-3)Gal(b1-4)GlcNAc(b1-3)Gal(b1-4)GlcNAc(b1-2)[Gal(b1-4)GlcNAc(b1-3)Gal(b1-4)GlcNAc(b1-3)Gal(b1-4)GlcNAc(b1-3)Gal(b1-4)GlcNAc(b1-6)]Man(a1-6)[Gal(b1-4)GlcNAc(b1-3)Gal(b1-4)GlcNAc(b1-3)Gal(b1-4)GlcNAc(b1-3)Gal(b1-4)GlcNAc(b1-2)Man(a1-3)]Man(b1-4)GlcNAc(b1-4)[Fuc(a1-6)]GlcNAc. The method in brief:
as §1

The target in assay [4] is Gal(b1-4)GlcNAc(b1-3)Gal(b1-4)GlcNAc(b1-3)Gal(b1-4)GlcNAc(b1-3)Gal(b1-4)GlcNAc(b1-3)Gal(b1-4)GlcNAc(b1-2)Man(a1-3)[Gal(b1-4)GlcNAc(b1-3)Gal(b1-4)GlcNAc(b1-3)Gal(b1-4)GlcNAc(b1-3)Gal(b1-4)GlcNAc(b1-3)Gal(b1-4)GlcNAc(b1-2)Man(a1-6)]Man(b1-4)GlcNAc(b1-4)GlcNAc. A digest of the protocol: as §1
In assay [5] the target is Gal(b1-4)GlcNAc(b1-3)Gal(b1-4)GlcNAc(b1-3)Gal(b1-4)GlcNAc(b1-3)Gal(b1-4)GlcNAc(b1-3)Gal(b1-4)GlcNAc(b1-2)Man(a1-3)[Gal(b1-4)GlcNAc(b1-3)Gal(b1-4)GlcNAc(b1-3)Gal(b1-4)GlcNAc(b1-3)Gal(b1-4)GlcNAc(b1-3)Gal(b1-4)GlcNAc(b1-2)Man(a1-6)]Man(b1-4)GlcNAc(b1-4)[Fuc(a1-6)]GlcNAc. The method in brief:
as §1

Assay [6] has as its target Gal(b1-4)GlcNAc(b1-3)Gal(b1-4)GlcNAc(b1-3)Gal(b1-4)GlcNAc(b1-3)Gal(b1-4)GlcNAc(b1-3)Gal(b1-4)GlcNAc(b1-2)[Gal(b1-4)GlcNAc(b1-3)Gal(b1-4)GlcNAc(b1-3)Gal(b1-4)GlcNAc(b1-3)Gal(b1-4)GlcNAc(b1-3)Gal(b1-4)GlcNAc(b1-6)]Man(a1-6)[Gal(b1-4)GlcNAc(b1-3)Gal(b1-4)GlcNAc(b1-3)Gal(b1-4)GlcNAc(b1-3)Gal(b1-4)GlcNAc(b1-3)Gal(b1-4)GlcNAc(b1-2)Man(a1-3)]Man(b1-4)GlcNAc(b1-4)[Fuc(a1-6)]GlcNAc. The method in brief: as §1

For assay [7], the target named is Gal(b1-4)GlcNAc(b1-3)Gal(b1-4)GlcNAc(b1-3)Gal(b1-4)GlcNAc(b1-3)Gal(b1-4)GlcNAc(b1-3)Gal(b1-4)GlcNAc(b1-3)Gal(b1-4)GlcNAc(b1-2)Man(a1-3)[Gal(b1-4)GlcNAc(b1-3)Gal(b1-4)GlcNAc(b1-3)Gal(b1-4)GlcNAc(b1-3)Gal(b1-4)GlcNAc(b1-3)Gal(b1-4)GlcNAc(b1-3)Gal(b1-4)GlcNAc(b1-2)Man(a1-6)]Man(b1-4)GlcNAc(b1-4)GlcNAc. The method in brief: as §1
The target in assay [8] is Gal(b1-4)GlcNAc(b1-3)Gal(b1-4)GlcNAc(b1-3)GalNAc. A digest of the protocol:
as §1

The target in assay [9] is Gal(b1-4)GlcNAc(b1-3)Gal(b1-4)GlcNAc(b1-3)[Gal(b1-4)GlcNAc(b1-3)Gal(b1-4)GlcNAc(b1-6)]GalNAc. A digest of the protocol: as §1
Assay [10] has as its target Gal(b1-4)GlcNAc(b1-3)Gal(b1-4)GlcNAc(b1-6)[Gal(b1-3)]GalNAc. A digest of the protocol:
as §1

Assay [11] addresses Gal(b1-4)GlcNAc(b1-3)Gal(b1-4)[Fuc(a1-3)]GlcNAc(b1-3)Gal(b1-4)[Fuc(a1-3)]GlcNAc. The method in brief: as §1
In assay [12] the target is Gal(b1-4)GlcNAc(b1-3)GalNAc. The method in brief: as §1
Assay [13] concerns the target Gal(b1-4)GlcNAc(b1-3)[Fuc(a1-3)GlcNAc(b1-6)]Gal(b1-4)Glc. The method in brief:
as §1

Assay [14] addresses Gal(b1-4)GlcNAc(b1-3)[Gal(b1-4)GlcNAc(b1-6)]Gal(b1-4)GlcNAc. The method in brief:
as §1

Assay [15] deals with Gal(b1-4)GlcNAc(b1-3)[GlcNAc(b1-6)]Gal(b1-4)GlcNAc. A digest of the protocol: as §1
Assay [16] addresses Gal(b1-4)GlcNAc(b1-6)Gal(b1-4)GlcNAc. The method in brief: as §1
Assay [17] addresses Gal(b1-4)GlcNAc(b1-6)GalNAc. A digest of the protocol: as §1
Assay [18] has as its target Gal(b1-4)GlcNAc(b1-6)[Gal(b1-3)]GalNAc. The method in brief:
as §1

Assay [19] deals with Gal(b1-4)GlcNAc(b1-6)[Gal(b1-4)GlcNAc(b1-3)]GalNAc. A digest of the protocol:
as §1

The next assay addresses Gal(b1-4)GlcNAc6P. The method in brief: as §1
In a further assay the target is Gal(b1-6)Gal. The method in brief: as §1
For the next assay, the target named is Gal3S(b1-3)GalNAc. A digest of the protocol:
as §1

For a further assay, the target named is Gal3S(b1-3)GlcNAc. A digest of the protocol:
as §1

B1: Dectin2 (Homo sapiens), Q6EIG7 (protein)
chain: MMQEQQPQSTEKRGWLSLRLWSVAGISIALLSACFIVSCVVTYHFTYGETGKRLSELHSYHSSLTCFSEGTKVPAWGCCPASWKSFGSSCYFISSEEKVWSKSEQNCVEMGAHLVVFNTEAEQNFIVQQLNESFSYFLGLSDPQGNNNWQWIDKTPYEKNVRFWHLGEPNHSAEQCASIVFWKPTGWGWNDVICETRRNSICEMNKIYL
With B1, the “glycan array binding signal (z-score)” value is -0.086 in [1]; -0.09 in [2]; -0.051 in assay [3]; -0.062 in [4]; -0.077 in assay [5]; -0.055 in assay [6]. Besides, the “glycan array binding signal (z-score)” value in [7] was 0.04; in [8] it was -0.013; in [9] it was 0.179; in assay [10] it was 0.038; in [11] it was -0.148; in assay [12] it was -0.186. Moreover, the “glycan array binding signal (z-score)” value in assay [13] is -0.161; in assay [14], -0.183; in assay [15], 0.376; in assay [16], -0.198; in [17], -0.178; in [18], 0.199. The “glycan array binding signal (z-score)” value in [19] is -0.169; with Gal(b1-4)GlcNAc6P it was -0.184; in the assay with Gal(b1-6)Gal it was -0.158; with Gal3S(b1-3)GalNAc, -0.138; with Gal3S(b1-3)GlcNAc, -0.151.

The values above are taken from the supplement of paper PMC8728848.
